# The list shows a part of the results. Shown are side measurements of this screen, not its main read-out; they come without a call.
# Molecular target: GTPase KRas (Homo sapiens) (UniProt P01116)
# Test: Cysteine mutants labelled by reactive fragments (mass read-out) (AID 2202238)
# Set-up: protein at 5 µM with 500 µM competing thiol for 1.5 h
# Settings: KRAS G12D cysteine mutants, disulfide tethering, MALDI-TOF labeling, stronger effect = higher value, fragment at 500 µM
# [1] = measured here: G75C mutant labeling
# [2] = measured here: H94C mutant labeling
# [3] = measured here: I36C mutant labeling
# [4] = measured here: L120C mutant labeling
# [5] = measured here: M67C mutant labeling
# [6] = measured here: M72C mutant labeling
# [7] = measured here: N86C mutant labeling
# [8] = measured here: P121C mutant labeling
# [9] = measured here: S122C mutant labeling
# [10] = measured here: S136C mutant labeling
# [11] = measured here: G60C mutant labeling
# [12] = measured here: N26C mutant labeling
# Sequence of UniProt P01116 (P01116 whole entry, looked up, the tested form may be a part): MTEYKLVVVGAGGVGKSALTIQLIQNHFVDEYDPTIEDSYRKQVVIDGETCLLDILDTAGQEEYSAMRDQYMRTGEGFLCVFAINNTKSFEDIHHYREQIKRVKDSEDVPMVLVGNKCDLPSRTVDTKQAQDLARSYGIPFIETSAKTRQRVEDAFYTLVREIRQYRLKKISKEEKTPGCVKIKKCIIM
SMILES,percent labeling [1] [%],percent labeling [2] [%],percent labeling [3] [%],percent labeling [4] [%],percent labeling [5] [%],percent labeling [6] [%],percent labeling [7] [%],percent labeling [8] [%],percent labeling [9] [%],percent labeling [10] [%],percent labeling [11] [%],percent labeling [12] [%]
CCCC(NC(=O)CCS)c1ncc(-c2ccc3c(c2)OCO3)[nH]1 (configuration not stated),11.2,33.1,24,13.5,23.2,23.1,14.6,19.2,8.3,27.5,–,–
COc1cccc(N2CCN(C(=O)CCS)CC2)c1,8.7,25.7,24.4,23.1,25.4,20.8,6.8,22.3,26.4,41.8,–,–
Cc1nn(COc2ccc(F)cc2)c(C)c1NC(=O)CCS,13.8,40.1,42.8,23.5,56.7,27.8,32.8,30.8,27.6,53,–,–
CN1C(=O)COc2ccc(C(=O)NCCS)cc21,27.8,45.5,30.2,41.8,35,59.9,23.3,31.9,30.4,49.9,44.9,53.7
CC(=O)N(Cc1ccsc1)C1CC12CCN(C(=O)CCS)CC2 (configuration not stated),15.1,33.2,32.3,29.7,47,26.6,21.2,30.2,28.9,65.7,–,–
O=C(NCCS)c1cc2ccccc2[nH]c1=O,12.7,16.9,19.9,15.5,14.3,54.2,12.2,20.9,8.4,33.1,19.3,25.6
O=C(CCS)N1CCN(c2ccncc2F)CC1,17,35.7,45.3,32.8,45.6,30.1,21.9,31.4,30,57.1,–,–
COc1sccc1C(=O)NCCS,38.7,60.2,31.4,47.7,42.9,68.7,42,37.2,40.2,57.1,62.6,44.6
Cc1cn(-c2ccccc2)nc1C(=O)NCCS,11.8,10.6,9,12.6,10.1,34.6,7.5,12.1,7,15.5,14.5,31.3
CC(C)C(C(=O)NCCS)n1cnc2cc(F)c(F)cc21 (configuration not stated),6.4,22.2,26.7,17.5,33.3,21.3,13.7,20.7,19.7,29.2,40.1,33.8
O=C(NCCS)C(F)(F)C1(O)CCCCCC1,19.6,35,21.6,41.9,31.6,28.5,31,32.2,34,45.3,49.1,38.6

# From PubChem BioAssay AID2202238 (Ras Initiative Chemistry Research Team, Frederick National …, 2025)
